In the supplement of paper PMC11417369:
Some of the results follow.

The sequences below were run on PfAP2-HC AP2 domain (GST-tagged) (assay: gcPBM binding intensity (ln(normalized median fluorescence intensity)); higher = stronger DNA binding).
Summary of the method: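 Binding of GST-tagged P. falciparum DNA-binding domains, expressed in E. coli and used at about 25 μg on average, was carried out for 1 h in 1× PBS containing 1% milk, 0.2 mg/ml BSA, 0.5% salmon testes DNA and 0.03% Triton X-100. The target was an Agilent 4 × 180k array of primer-extended double-stranded 36-bp intergenic genomic probes plus negative controls, read with Alexa488 anti-GST antibody at 488 nm. Binding intensity is the highest Masliner-normalised natural-log median intensity across replicate spots of either probe orientation.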

In order of falling “gcPBM binding intensity (ln)” value:
1. GATAAATTAAGACACACACACATATATTTATTTATA [CACACA_site7789]  11.2
2. ATTAAATACATTAACACACACACAAATATATACATA [CACACA_site2881]  10.7
3. AAGAAAAAAAAAATTACACACTGCGCACATACACAA [CACACA_site6721]  10.6
4. CGTGGGAGCGGACACACACACACACCCATATATATA [CACACA_site4340]  10.4
5. AATATTTATATTTACACACACATAATACATCTATGT [CACACA_site4187]  10.4
6. TTTATAAAAATGAACACACACATATAAATATAAATA [CACACA_site7607]  10.3
7. ATACAAAAAAGAAGGACACACAGAAGTAACATGTTA [CACACA_site3074]  10.2
8. AAAAAAAAGTTAAGCACACACATGAATAAATAATAC [CACACA_site840]  10.2
9. AACAGATAAAAGGGTACACACATATATACAAGTACA [CACACA_site7959]  10.2
10. ATAACATAACATAATACACACATATAAAAAAGAAAT [CACACA_site3028]  10.1
11. TATGTATTAAATTTTACACACATGATTCTCTATATG [CACACA_site8720]  10.1
12. ATTATTATTAAATACACACACATACCTCCATGTTAG [CACACA_site3430]  10.1
13. TTTTTTTGTTGTTGTTGTACGATATTTTCCTTATCA [XGTACX_site2375]  10
14. GATACACCAAATAACTGTACGCACGTGTAATATTAA [XGTACX_site3441]  9.99
15. ATATATATATATATATGTACATACTATACAATAATT [XGTACX_site3546]  9.97
16. ACTTATATAAAACATTAACACACAAAGAAAAAAAAT [CACACA_site8529]  9.94
17. TATAAATAAAGATATACACACATATAAATATTTTTC [CACACA_site7798]  9.94
18. AATAATGTATAATGATGTACAAAAAAGGAAGACATA [XGTACX_site2474]  9.93
19. ATTTTTGTGTATTAATGTACTTTATGCATATTTGAC [XGTACX_site3353]  9.9
20. TACATCGGTATATAAACACACAACAAAAATGCTTAC [CACACA_site5983]  9.87
21. TATGAAAATTAAGTTTGTACACAAGTGGAAAAAAAA [XGTACX_site6129]  9.87
22. GGGAATATAAGTACACGATAATATGTGATAAGGTCT [CACACA_negctrl_site1502]  9.86
23. TAGTATTAGATATATACACACATATATACCTATAGA [CACACA_site7083]  9.86
24. AGAACTTTTAATGGATGTACAGTTATTTTATTATTT [XGTACX_site6226]  9.86
25. AAAATAATTAAAAAAAGTACTCGTAATATAAATATA [XGTACX_site4967]  9.85
26. CCTAGAAAAGTATATACACACGCGCAAAATAAAATT [CACACA_site1413]  9.83
27. TTTATATGTATTAATTGTACACATATAATGTGTTTT [XGTACX_site3064]  9.83
28. TACATTTATAATAATACACACATAAATTTACATTTT [CACACA_site3463]  9.82
29. CATGTTCATCAGAACGCACACATAATGGTTTACTTA [CACACA_site898]  9.82
30. AAAAATAGAATAAATACACACCCGTGTAACGGATTT [CACACA_site3372]  9.81
31. TTTTATTTTTATTATACACACGCTTAATAAATGCAT [CACACA_site1751]  9.78
32. TTACGATCATCAATATGTACATATATATATATATAT [XGTACX_site4301]  9.75
33. TTTTTTTTGCGTACAGTGCAAATTTATTTACTATTC  9.74
34. TTGTTATTATATTACGCATGCATCATTTATTTGCAC [TGCATGCA_site525]  9.74
35. AGTAACTAATTAAATGCATGTCGATATATATTATAT [TGCATGCA_site1038]  9.73
36. CATTTAACATAAATTAAACACACAATATAATACATT [CACACA_site8333]  9.73
37. ATATTTTGTAATATTTGTACATATATTATACATATA [XGTACX_site963]  9.72
38. AGGTGTATCATAAAATGTACATACATACATACATAA [XGTACX_site4479]  9.71
39. TAACATGATATATAATGTACATATAAGATATTTATA [XGTACX_site4383]  9.7
40. AATAATAATACTAATCGTACGCATATTTTTCAAACC [XGTACX_site8055]  9.7
41. TATTTTTATAAGTAAAAGGAGCACAGTTAAAGGATC [XGTACX_negctrl_site362]  9.7
42. TATATATATATATATACACACATATATACCTATATA [CACACA_site6085]  9.68
43. ATTTTTTTTTTTATAGTGGATCCACATTTGCCATTT [CACACA_negctrl_site1106]  9.68
44. GATATAATTATGTGTACACAATTTTTTTTTTTTTTT [CACACA_site4501]  9.68
45. ATATGTATGTATAATCGTACAAAATTTGGCGATCTT [XGTACX_site8698]  9.68
46. AAAGGGAATTATGGCTGTACGCATTTTATAAATAGC [XGTACX_site5878]  9.68
47. GGGGGGATGAGATATTGTACTTTTTAGGAAAGTGTA [XGTACX_site2835]  9.67
48. TGTATAAAAGTTTATACACACATTTGATATATTTCA [CACACA_site6606]  9.66
49. AATTTAAAAGCTTGTGGTACTTTTGCTCTTCCTTTG [XGTACX_site3148]  9.65
50. AAATTAAATAAATTTACACACTAAAAGTTACCTATA [CACACA_site6623]  9.65
51. AAAGATAAAATATTATGTACATATATATATATATAT [XGTACX_site5079]  9.65
52. ATATAGTAAATTGGTAGTACATAAAATGATTTTATG [XGTACX_site4143]  9.65
53. ACAAATAAATAAAAATGTACAAATGAATACATCTTA [XGTACX_site3780]  9.64
54. AAAAAAGAACGCATAGTGCATATCTAAAAGATTTTT  9.64
55. AAATAAAGGAAATAAAAAGAAACCAATTTCGAATAT [CACACA_negctrl_site953]  9.63
56. TTATTATTAAAAAAAAGTACAGAATTGAATAATACA [XGTACX_site651]  9.61
57. AAATATAATAATATATGTACATATATATATATATAT [XGTACX_site6980]  9.59
58. GTGTATATGTATATATGTACATAAATTTTTTTTTTT [XGTACX_site7083]  9.59
59. AATAATATATTTAGGGGTACATAATAATATATTTTA [XGTACX_site8366]  9.59
60. TATATAGATATGATAGTGCATTTTTAGAAAACATAA [GTGCAC_site9962]  9.59
61. TATGTAAAAAGAGAAAAAAAAAAGAACGATAATTTC [CACACA_negctrl_site946]  9.58
62. ATGAATTATATATTATGTACATATAATTAAAATATA [XGTACX_site7140]  9.58
63. TATACATATTATATATGTACACATATTATATGTATA [XGTACX_site5851]  9.57
64. AAATTTAATTTTATATCACACATTAAATTTTAATGG [CACACA_site4251]  9.53
65. TCAACAAATAAACTTTGTACATATATACAAAATATA [XGTACX_site4447]  9.53
66. TTAAAAGATATTACATGTACATATTCAATATATGTA [XGTACX_site5895]  9.53
67. TATTATTATTTTTTATGTACTAACGACAAAAATATT [XGTACX_site252]  9.52
68. TTTTAATTTATTAATTGTACATGTATTTTAAGATTA [XGTACX_site8417]  9.52
69. TTAACCGGTTTATGGGTGCACATTCTTCTTAAATAA [GTGCAC_site9928]  9.51
70. TTTTAAATATGAACATGTACATGTAAATTTACATGT [XGTACX_site4573]  9.51
71. TTTTTTTTAAAACTATGTACGTAAAAATTGTAGTTT [XGTACX_site2302]  9.51
72. TATAAAAAAAACAAAAAAAAAAAAAAACAAAAAAAA [TGCATGCA_negctrl_site514]  9.5
73. ATATAAGAATTTAAGAGTACATTCACTTCAAATTTA [XGTACX_site2115]  9.48
74. AAAAAAAAAAAAAAAGGTACAGTAAAAAATTCCTCT [XGTACX_site5947]  9.48
75. ATATAATATATTTTCACACATATTTTATGATGATAA [CACACA_site5614]  9.46
76. TAAACATTTGGCTGATGTACTTGCTACCTTAAATCA [XGTACX_site5514]  9.45
77. TATAAAAAAATATTATAATATATATATATATATATA [XGTACX_negctrl_site41]  9.45
78. TATTCTATAAATATATTTTTTTAATTTTTTATTTTA [CACACA_negctrl_site307]  9.42
79. AAAAAAAAAAAAAAAAAAAAAAAAAAAAAAAAAAAT [CACACA_negctrl_site882]  9.42
80. AAAAAAATATATATATATATATATATATATATATAT [TGCATGCA_negctrl_site7]  9.35
81. ATATAAAGAAATTAATTTTTCAACAATAAAAATATA [CACACA_negctrl_site1262]  9.35
82. TTATGTAGCTAGCTATAAACTTTTTTTTATTTAAAA [CACACA_negctrl_site1297]  9.35
83. AAAATGTGCTTTTCAGTGCAATTTTTTTTGTAATAA [GTGCAC_site9566]  9.33
84. TTGTAATTCATTCAAATATAAAATAAATAAATATGA [CACACA_negctrl_site349]  9.29
85. TTTGTTATTTATTAGTGTACAAAAAAGCATTTCAAA [XGTACX_site8729]  9.28
86. TTTTTTTAAAAAAACAAAAAAAAAAAAAATATAAAA [TGCATGCA_negctrl_site511]  9.06
87. TTGGTCTTTTAAAAAAGTACAAAAAAAAAAAAAAAA [XGTACX_site1665]  9
88. TTTAAAAAAAAAAAAAAAAATTAAATGAATTATTAA [CACACA_negctrl_site1121]  8.95
